Test results from patent publication US20250109201A1 (AGENUS, published 2025).

Tests used:
[1] = molecular target: T1, ECD-His tagged human ILT2 haplotype PE01 (human, UniProt Q8NHL6 24-458); experiment: SPR, captured antibody, ILT2 ECD-His analyte
T1 construct: also called Human ILT2 PE01 ECD; LILRB1/ILT2 PE01; not shown: His tag
Experimental: (§1) The binding affinity of anti-ILT2 antibody variants with IgG1 N297A constant regions to ECD-His tagged human ILT2 haplotypes PE01, PE02, PE03 (see Table 1) was assessed by surface plasmon resonance (SPR).
(§2) Briefly, SPR experiments were performed using a Biacore T200 instrument, and the association rate (Kₐ), dissociation rate (Kd), and dissociation constant (KD) were calculated from each experiment using a 1:1 binding model with Biacore™ T200 Evaluation Software. Capture of antibodies from the Human Fab Capture kit (28958325, GE Healthcare) to the Series S CM5 sensor chip (29149603, GE Healthcare) was performed using the immobilization wizard for amine coupling from the Biacore™ control panel and following the manufacturer's recommendations included with the kit.
(§3) Approximately 3 μg/mL of tested anti-ILT2 antibodies and controls diluted in a running buffer (10 mM HEPES, 150 mM NaCl, 3 mM EDTA, and 0.05% surfactant P20) were captured in individual flow cells of previously prepared anti Human Fab CM5 chip, keeping a single flow cell as a reference. Antibodies were captured using a 30 sec injection at a flow rate of 10 μL/min to reach about 150 resonance units (Rus). Human ILT2 ECD PE01 (diluted in the running buffer at the concentration of 30, 10, 3.3, 1.11, 0.37, 0.12 nM), and human ILT2 ECD PE02 and PE03 (diluted in the running buffer at the concentration of 33.3, 11.1, 3.7, 1.2, 0.41, 0.14 nM), were flowed over the chip surface at a flow rate of 30 μL/min with a 3-min association phase and a 10-min dissociation phase. The sensor chip was regenerated between cycles with a double 30-sec injection of 10 mM glycine, pH 2.1 at 30 μL/min followed by stabilization period of 60s. Sensorgrams were evaluated and fit to a simple Langmuir 1:1 interaction model using the global data analysis option of BIAevaluation 3.1 software. Data quality was verified by visually inspecting deviations and curve fitting, and by evaluating the parameters of Rₘₐₓ, Chi2, and Tc.

[2] = molecular target: T2, ECD-His tagged human ILT2 haplotype PE02 (human, UniProt Q8NHL6 24-458); experiment: SPR, captured antibody, ILT2 ECD-His analyte
T2 construct: also called Human ILT2 PE02 ECD; not shown: His tag
Experimental: as §1, §2, §3

[3] = molecular target: T3, ECD-His tagged human ILT2 haplotype PE03 (human, UniProt Q8NHL6 24-458); experiment: SPR, captured antibody, ILT2 ECD-His analyte
T3 construct: also called Human ILT2 PE03 ECD (Sino biological, 16014-H08H); not shown: His tag
Experimental: as §1, §2, §3

[4] = molecular target: T4, human ILT2 extracellular and transmembrane domains expressed on CHO cells (human, UniProt Q8NHL6 24-482, limits assumed); experiment: flow cytometry, CHO cells with low human ILT2
T4 construct: domain: extracellular and transmembrane domains; which one is told under assay; also called CHO cells expressing human ILT2 (relatively low or relatively high level); CHO-ILT2 cells
Experimental: For the antibody binding assay, the cells were seeded in a 96-well U-bottom tissue culture plate at a density of 3×10⁵ cells per well in 25 μL of PBS supplemented with 0.5% BSA, 1 mM EDTA and 0.05% sodium azide (FACS Buffer). The cells were incubated for 30 minutes at 4° C. with 25 μL of a series dilution of anti-ILT2 antibodies or isotype control, at final concentrations ranging from 10 μg/mL to 0.2 ng/mL in FACS Buffer.
After a 30-minute incubation in the dark at 4° C., the cells were washed twice with cold FACS Buffer, and the cells were analyzed by flow cytometry (BD LSR Fortessa Flow Cytometer). CHO cells were identified using a plot of forward scatter-area (FSC-A) versus side scatter area (SSC-A) and another plot of FSC-A versus forward scatter-height (FSC-H) for selection of single cells. Samples were analyzed by sequentially gating on the single cell population and plotting histograms representing the fluorescence in the PE channel. For each sample, mean fluorescence intensity (MFI) was calculated, and the data were plotted by GraphPad Prism software.

[5] = molecular target: T5, full-length ILT2 expressed on Jurkat cells (human, UniProt Q8NHL6 24-650); experiment: flow cytometry, Jurkat cells expressing human ILT2
T5 construct: whole, on cells; The Jurkat line also carries FcgRIIIa and an NFAT-luciferase reporter (Promega/G7102); also called Jurkat cells expressing human ILT2; ILT2-expressing Jurkat reporter cells

[6] = molecular target: T1, ECD-His tagged human ILT2 haplotype PE01; experiment: SPR, ILT2 PE01 ECD-His, average of two measurements
T1 sequence (Q8NHL6 24-458): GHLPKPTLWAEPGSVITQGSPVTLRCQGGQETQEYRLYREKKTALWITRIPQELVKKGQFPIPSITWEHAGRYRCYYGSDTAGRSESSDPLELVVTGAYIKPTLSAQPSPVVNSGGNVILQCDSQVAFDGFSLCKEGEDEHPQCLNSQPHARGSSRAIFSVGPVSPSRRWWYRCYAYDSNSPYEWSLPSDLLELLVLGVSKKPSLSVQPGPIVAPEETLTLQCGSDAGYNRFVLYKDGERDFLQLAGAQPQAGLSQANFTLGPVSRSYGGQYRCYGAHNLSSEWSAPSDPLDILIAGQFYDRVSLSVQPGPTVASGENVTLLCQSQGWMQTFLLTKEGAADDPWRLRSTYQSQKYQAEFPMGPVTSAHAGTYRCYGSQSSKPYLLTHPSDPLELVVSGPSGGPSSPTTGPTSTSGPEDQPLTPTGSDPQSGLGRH
Experimental: as §2
Variants of irrelevant antibody VRC01 (with IgG1, IgG1 N297A, IgG4 S228P, IgG2, or IgG2 C127S constant regions) were used as negative isotype controls. The binding kinetics are shown in Table 5 as an average from two independent measurements.

[7] = molecular target: T4, human ILT2 extracellular and …; experiment: flow cytometry, blocking of HLA-G-Fc-PE on CHO cells with high human ILT2
Experimental: Samples were analyzed by sequentially gating on the single cell population and plotting histograms representing the fluorescence in the PE channel.

B1: BA211 (antibody, human IgG1, kappa)
heavy: QVQLVQSGAEVKKPGASVKVSCKASGYTFNRYYMHWVRQAPGQGLEWMGWINPYTGGTNYAQKFQGRVTMTRDTSISTAYMELSRLRSDDTAVYYCASKQPSSDYWGQGTLVTVSSASTKGPSVFPLAPSSKSTSGGTAALGCLVKDYFPEPVTVSWNSGALTSGVHTFPAVLQSSGLYSLSSVVTVPSSSLGTQTYICNVNHKPSNTKVDKRV[letters of human IgG1 Fc with changes omitted]
light: not shown
Q: How did the Kd [1] turn out when B1 was run?
A: 0.099 nM

Q: And the koff [1]?
A: 3.4e-05 s⁻¹

Q: What about the kon [1] of the same binder?
A: 340000 M⁻¹ s⁻¹

Q: And the Kd [2]?
A: 0.671 nM

Q: And the koff [2]?
A: 0.00017 s⁻¹

Q: What about the kon [2] of the same binder?
A: 260000 M⁻¹ s⁻¹

Q: What about the Kd [3] of the same binder?
A: 0.929 nM

Q: And the koff [3]?
A: 0.00025 s⁻¹

Q: What about the kon [3] of the same binder?
A: 270000 M⁻¹ s⁻¹

Q: And the AUC [4]?
A: 13300

Q: What about the EC50 [4] of the same binder?
A: 0.123 µg/mL

Q: And the AUC [5]?
A: 226000

Q: What about the EC50 [5] of the same binder?
A: 0.059 µg/mL

Q: What about the Kd [6] of the same binder?
A: 0.15 nM

Q: And the koff [6]?
A: 5.6e-05 s⁻¹

Q: And the kon [6]?
A: 370000 M⁻¹ s⁻¹

Q: And the IC50 [7]?
A: 0.159 µg/mL

B2: BA210 (antibody, human IgG1, kappa)
heavy: QVQLVQSGAEVKKPGASVKVSCKASGYTFNRYYMHWVRQAPGQGLEWMGWINPYTGGTNYAQKFQGRVTMTRDTSISTAYMELSRLRSDDTAVYYCASKQPSSDYWGQGTLVTVSSASTKGPSVFPLAPSSKSTSGGTAALGCLVKDYFPEPVTVSWNSGALTSGVHTFPAVLQSSGLYSLSSVVTVPSSSLGTQTYICNVNHKPSNTKVDKRV[letters of human IgG1 Fc omitted]
light: not shown
Q: What does the source list for B2?
A: Kd [6]: 0.15 nM; koff [6]: 8.9e-05 s⁻¹; kon [6]: 710000 M⁻¹ s⁻¹

B3: BA248 (antibody, human IgG4 S228P, kappa)
heavy: QVQLVQSGAEVKKPGASVKVSCKASGYTFNRYYMHWVRQAPGQGLEWMGWINPYTGGTNYAQKFQGRVTMTRDTSISTAYMELSRLRSDDTAVYYCASKQPSSDYWGQGTLVTVSSASTKGPSVFPLAPCSRSTSESTAALGCLVKDYFPEPVTVSWNSGALTSGVHTFPAVLQSSGLYSLSSVVTVPSSSLGTKTYTCNVDHKPSNTKVDKRV[letters of human IgG4 Fc with S228P (EU numbers) omitted]
light: not shown
Q: For B3, which Kd [6] is on record?
A: 0.22 nM

Q: And the koff [6]?
A: 8.3e-05 s⁻¹

Q: And the kon [6]?
A: 410000 M⁻¹ s⁻¹
